Data from the supplement of paper PMC4967469.
Lines with a small IC50 respond at low doses; a fit beyond the top or the lowest dose is shown as a bound at that dose. AUC is the area under the same curve over the 256-fold range up to the top dose, as a fraction; the more sensitive the line, the further below 1. For some of these results: An inferred top dose comes from the curve model; the source does not state it. For some of these results: Where an entry number is given, a second screen of the drug exists; the two often differ.

What was measured:
Test in all cases: Viability of human cancer cell lines after 72 h of drug (GDSC screen)
Docetaxel = compound: CC(=O)O[C@@]12CO[C@@H]1C[C@H](O)[C@@]1(C)C(=O)[C@H](O)C3=C(C)[C@@H](OC(=O)[C@H](O)[C@@H](NC(=O)OC(C)(C)C)c4ccccc4)C[C@@](O)([C@@H](OC(=O)c4ccccc4)[C@H]21)C3(C)C [Docetaxel]; settings: top dose 0.0125 µM
Protocol: (§1)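 Human cancer cell lines in 384-well plates, medium with 10% serum, drug for 72 h over a 256-fold dose range (nine 2-fold or five 4-fold steps up to the top dose). Adherent lines were fixed and stained with the nucleic acid dye Syto60, suspension lines read with resazurin; signal relative to control wells, capped at 0 and 100%. One two-parameter sigmoid per drug and line, fitted in a mixed model over all curves with the slope shared within a line.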

AMG-706 = compound: CC1(C)CNc2cc(NC(=O)c3cccnc3NCc3ccncc3)ccc21 [AMG-706]; settings: top dose 2 µM; top dose inferred
Protocol: as §1

JNK Inhibitor VIII = compound: CCOc1nc(NC(=O)Cc2cc(OC)ccc2OC)cc(N)c1C#N [JNK Inhibitor VIII]; settings: top dose 10 µM; top dose inferred
Protocol: as §1

NSC-207895 = compound: CN1CCN(c2ccc([N+](=O)[O-])c3no[n+]([O-])c23)CC1 [NSC-207895]; settings: top dose 20 µM; top dose inferred
Protocol: as §1

FTI-277 = compound: COC(=O)[C@H](CCSC)NC(=O)c1ccc(NC[C@@H](N)CS)cc1-c1ccccc1 [FTI-277]; settings: top dose 1.024 µM; top dose inferred
Protocol: as §1

YM155 = compound: COCC[n+]1c2c(n(Cc3cnccn3)c1C)C(=O)c1ccccc1C2=O [YM155]; settings: top dose 5.12 µM
Protocol: as §1

OSI-906 = compound: C[C@]1(O)C[C@@H](c2nc(-c3ccc4ccc(-c5ccccc5)nc4c3)c3c(N)nccn32)C1 [OSI-906]; settings: top dose 2.56 µM; top dose inferred
Protocol: as §1

SB-715992 = compound: Cc1ccc(C(=O)N(CCCN)[C@@H](c2nc3cc(Cl)ccc3c(=O)n2Cc2ccccc2)C(C)C)cc1 [SB-715992]; settings: top dose 0.128 µM; top dose inferred
Protocol: as §1

JQ1 = compound: Cc1sc2c(c1C)C(c1ccc(Cl)cc1)=N[C@@H](CC(=O)OC(C)(C)C)c1nnc(C)n1-2 [JQ1]
Protocol: as §1

Belinostat = compound: O=C(/C=C/c1cccc(S(=O)(=O)Nc2ccccc2)c1)NO [Belinostat]; settings: top dose 20 µM; top dose inferred
Protocol: as §1

JNJ-26854165 = compound: c1ccc2c(CCNc3ccc(Nc4ccncc4)cc3)c[nH]c2c1 [JNJ-26854165]; settings: top dose 10 µM
Protocol: as §1

[1] = top dose 1 µM, screen: GDSC drug entry 1218, top dose inferred
[2] = top dose 2.56 µM, screen: GDSC drug entry 163

| Cell Line | AUC (Docetaxel) | IC50 (Docetaxel) [nM] | AUC (AMG-706) | IC50 (AMG-706) [nM] | AUC (JNK Inhibitor VIII) | IC50 (JNK Inhibitor VIII) [nM] | AUC (NSC-207895) | IC50 (NSC-207895) [nM] | AUC (FTI-277) | IC50 (FTI-277) [nM] | AUC (YM155) | IC50 (YM155) [nM] | AUC (OSI-906) | IC50 (OSI-906) [nM] | AUC (SB-715992) | IC50 (SB-715992) [nM] | AUC (JQ1; [1]) | IC50 (JQ1; [1]) [nM] | AUC (JQ1; [2]) | IC50 (JQ1; [2]) [nM] | AUC (Belinostat) | IC50 (Belinostat) [nM] | AUC (JNJ-26854165) | IC50 (JNJ-26854165) [nM] |
| --- | --- | --- | --- | --- | --- | --- | --- | --- | --- | --- | --- | --- | --- | --- | --- | --- | --- | --- | --- | --- | --- | --- | --- | --- |
| PL4 (pancreas, adherent) | 0.843 | 9.27 | 0.973 | > 2000 | 0.987 | > 10000 | 0.945 | > 20000 | 0.987 | > 1020 | 0.031 | < 20 | 0.971 | > 2560 | 0.978 | > 128 | 0.986 | > 1000 | 0.972 | > 2560 | 0.698 | 4610 | 0.956 | > 10000 |
| OAW-42 (ovary, adherent) | 0.896 | > 12.5 | 0.978 | > 2000 | 0.976 | > 10000 | 0.905 | > 20000 | 0.986 | > 1020 | 0.231 | 49.1 | 0.967 | > 2560 | 0.9 | > 128 | 0.966 | > 1000 | 0.739 | 824 | 0.582 | 2130 | 0.949 | > 10000 |
| TOV-21G (ovary, adherent) | 0.585 | 1.37 | 0.979 | > 2000 | 0.955 | > 10000 | 0.968 | > 20000 | 0.981 | > 1020 | 0.048 | < 20 | 0.985 | > 2560 | 0.578 | 13.3 | 0.983 | > 1000 | 0.978 | > 2560 | 0.683 | 4280 | 0.899 | > 10000 |
| NCI-H1623 (lung adenocarcinoma, adherent) | 0.836 | 11.1 | 0.982 | > 2000 | 0.985 | > 10000 | 0.929 | > 20000 | 0.985 | > 1020 | 0.218 | 38.7 | 0.874 | > 2560 | 0.981 | > 128 | 0.982 | > 1000 | 0.964 | > 2560 | 0.433 | 787 | 0.925 | > 10000 |
| NCI-H2052 (mesothelioma, adherent) | 0.8 | 8.11 | 0.979 | > 2000 | 0.983 | > 10000 | 0.914 | > 20000 | 0.974 | > 1020 | 0.27 | 58.2 | 0.982 | > 2560 | 0.975 | > 128 | – | – | 0.608 | 344 | 0.887 | > 20000 | 0.765 | 4690 |
| HCC1954 (breast, adherent) | 0.864 | > 12.5 | 0.977 | > 2000 | 0.968 | > 10000 | 0.983 | > 20000 | 0.977 | > 1020 | 0.082 | < 20 | 0.984 | > 2560 | 0.446 | 5.54 | 0.972 | > 1000 | 0.965 | > 2560 | 0.643 | 3330 | 0.847 | 9230 |
| OSC-20 (head and neck, adherent) | 0.725 | 3.9 | 0.973 | > 2000 | 0.964 | > 10000 | 0.87 | > 20000 | 0.975 | > 1020 | 0.036 | < 20 | 0.983 | > 2560 | 0.79 | 69.2 | 0.972 | > 1000 | 0.781 | 1280 | 0.426 | 754 | 0.839 | 8770 |
| NCI-H1993 (lung adenocarcinoma, adherent) | 0.982 | > 12.5 | 0.983 | > 2000 | 0.983 | > 10000 | 0.98 | > 20000 | 0.94 | > 1020 | 0.048 | < 20 | 0.889 | > 2560 | 0.964 | > 128 | 0.968 | > 1000 | 0.859 | > 2560 | 0.706 | 5810 | 0.897 | > 10000 |
| CAL-27 (head and neck, adherent) | 0.399 | 0.411 | 0.986 | > 2000 | 0.959 | > 10000 | 0.942 | > 20000 | 0.979 | > 1020 | 0.107 | < 20 | 0.985 | > 2560 | 0.616 | 16.8 | 0.949 | > 1000 | 0.938 | > 2560 | 0.341 | 447 | 0.942 | > 10000 |
| NCI-H2342 (lung adenocarcinoma, adherent) | 0.928 | > 12.5 | 0.983 | > 2000 | 0.981 | > 10000 | 0.885 | > 20000 | 0.972 | > 1020 | 0.056 | < 20 | 0.954 | > 2560 | 0.982 | > 128 | 0.983 | > 1000 | 0.615 | 343 | 0.862 | > 20000 | 0.804 | 5610 |
| BICR10 (head and neck, adherent) | 0.662 | 2.37 | 0.952 | > 2000 | 0.936 | > 10000 | 0.917 | > 20000 | 0.918 | > 1020 | 0.206 | 37.1 | 0.891 | > 2560 | 0.953 | > 128 | 0.981 | > 1000 | 0.69 | 597 | 0.771 | 8880 | 0.843 | 8760 |
